{
  "source": "PubChem BioAssay AID1159614",
  "about": "(National Center for Advancing Translational Sciences (NCATS), 2016)",
  "note": "Hit rate of the full screen: of about 45,000 compounds, about 65 (0.1%) were called active. Calls come from the whole dose curve; as a rule, active = well fitted activation curve with a large enough effect; inconclusive = small, poorly fitted or top-dose-only effect; inactive = no such curve, though single readings can be large or run the other way. This is one part of the list. Potency is the fitted concentration of half-maximal effect.",
  "data": [
    {"biological_target": "Galactocerebrosidase (Homo sapiens) (UniProt P54803)", "sequence (P54803 whole entry, looked up)": "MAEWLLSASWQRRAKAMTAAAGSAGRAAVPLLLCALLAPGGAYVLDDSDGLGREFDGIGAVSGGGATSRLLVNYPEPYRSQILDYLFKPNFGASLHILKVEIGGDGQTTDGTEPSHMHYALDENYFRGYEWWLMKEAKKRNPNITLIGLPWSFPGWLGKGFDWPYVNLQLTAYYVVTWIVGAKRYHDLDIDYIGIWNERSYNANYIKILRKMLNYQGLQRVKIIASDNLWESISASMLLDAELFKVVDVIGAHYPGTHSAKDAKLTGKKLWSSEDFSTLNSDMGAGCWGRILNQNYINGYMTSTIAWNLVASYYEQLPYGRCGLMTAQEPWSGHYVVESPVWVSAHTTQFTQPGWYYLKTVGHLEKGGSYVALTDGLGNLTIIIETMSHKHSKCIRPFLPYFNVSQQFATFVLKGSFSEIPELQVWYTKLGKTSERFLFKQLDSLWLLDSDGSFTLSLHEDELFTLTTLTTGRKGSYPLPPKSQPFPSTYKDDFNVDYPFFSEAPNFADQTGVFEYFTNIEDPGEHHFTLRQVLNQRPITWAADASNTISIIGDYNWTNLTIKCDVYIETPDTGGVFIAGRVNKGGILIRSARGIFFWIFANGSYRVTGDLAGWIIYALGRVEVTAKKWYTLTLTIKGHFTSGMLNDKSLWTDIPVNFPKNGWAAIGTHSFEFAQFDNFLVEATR", "assay": "A Novel Cell-Based Assay to Identify Small Molecules for B -Galactocerebrosidase; note: nearly all actives have a fitted effect of over 65% in size; for activation: 0% is about no effect", "details": "145M-Twi-hGALC-G270D cells, HMU-beta-Gal fluorescence, 48 h; series mostly up to 57.5 µM; activation: at the top concentration", "procedure,_shortened": "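qHTS, 1536-well; 145M-Twi-hGALC-G270D cells (WT line also made) in DMEM/F12 + 10% FBS; compound incubation on live cells; HMU-β-gal 0.1 mM final, pH 5.2, NaTC; carbonate stop; fluorescence increase = enhanced residual activity.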", "values": [
      {"smiles": "Cn1cnc2c(=O)oc3ccc(S(=O)(=O)N4CCN(c5ccccc5)CC4)cc3c21", "activation": "inactive: 0.292%"},
      {"smiles": "CC(C)(C)OC(=O)N1CCC(c2c(C(=O)Nc3cccc(C(F)(F)F)c3)cnn2-c2ccc(F)cc2F)CC1", "activation": "inactive: 0.698%"},
      {"smiles": "Cc1cc(C)cc(NC(=O)CSc2nnc(COc3ccccc3Cl)o2)c1", "activation": "inactive: -13.8%"},
      {"smiles": "Cc1ccc(C)c(NC(=O)CCCN2C(=O)COc3ccc(C)cc32)c1", "activation": "inactive: 12.2%"},
      {"smiles": "CCN(CC)S(=O)(=O)c1ccc2c(c1)c(=O)c(C(=O)N(C)Cc1ccccc1)cn2C", "Potency": "active: 25.1 µM"},
      {"smiles": "O=C1CN(C(=O)c2ccc(Cl)cc2Cl)C(c2ccc(F)cc2)c2cc(F)ccc2N1", "note": "(configuration not stated)", "activation": "inactive: -8.47%"},
      {"smiles": "Cc1cc(OCC(=O)Nc2cnn(CCCC(=O)O)c2)ccc1Cl", "activation": "inactive: -11.1%"},
      {"smiles": "CN(C)c1ccc(C(CNC(=O)Cc2ccc(Cl)cc2)N2CCOCC2)cc1", "note": "(configuration not stated)", "activation": "inactive: -13.1%"},
      {"smiles": "CCOC(=O)C1CCN(C(=O)CSc2n[nH]c(-c3ccccc3Cl)n2)CC1", "activation": "inactive: -4.83%"},
      {"smiles": "CC(=O)Nc1cc(C(=O)NCc2ccc(F)cc2)ccc1Sc1ccc(C)cc1", "activation": "inactive: -2.99%"},
      {"smiles": "COc1ccc(C)cc1NC(=O)c1cc2c(s1)-c1ccccc1SC2", "activation": "inactive: -5.21%"},
      {"smiles": "CCOC(=O)CC(NC(=O)Cn1nnc(-c2ccc(C(F)(F)F)cc2)n1)c1ccccc1Cl", "note": "(configuration not stated)", "activation": "inactive: -16.2%"},
      {"smiles": "Cc1nn(-c2ccccc2)c(-n2cccc2)c1C(=O)NCc1ccccc1Cl", "activation": "inactive: -1.64%"},
      {"smiles": "CC1CCN(S(=O)(=O)c2ccc3ncn(CC(=O)Nc4ccccc4C(F)(F)F)c(=O)c3c2)CC1", "activation": "inactive: 3.15%"},
      {"smiles": "Cc1ccc(NC(=O)Cn2c(=O)n(-c3ccc(C)cc3)c(=O)c3ccc(C(=O)NCc4ccccc4Cl)cc32)cc1", "activation": "inactive: -9.75%"},
      {"smiles": "COc1ccc(CCNC(=O)Cc2c(C)c3c(cc(C)c4c(C)c(C)oc43)oc2=O)cc1OC", "activation": "inactive: -10.7%"},
      {"smiles": "Cc1ccc(S(=O)(=O)c2nc(-c3ccco3)oc2SC(C)C)cc1", "activation": "inactive: -14.8%"},
      {"smiles": "CCOc1ccc(CNC(=O)CN2C(=O)CCn3nc(-c4cn(C)c5ccccc45)cc32)cc1OC", "activation": "inactive: -8.33%"},
      {"smiles": "CC(C)OC(=O)c1cc2c(OCC(O)CNC(C)(C)C)cccc2[nH]1", "note": "(configuration not stated)", "activation": "inactive: -13.8%"},
      {"smiles": "CCCn1c2ccccc2c2cnn(CC(=O)Nc3cccc(C(=O)OCC)c3)c(=O)c21", "activation": "inactive: -3.91%"},
      {"smiles": "O=C(NCc1cccs1)c1nn(-c2ccccc2)nc1CO", "activation": "inactive: -10.2%"},
      {"smiles": "CCOc1ccc(NC(=O)CSc2cc(C)c3ccccc3n2)cc1", "activation": "inactive: -6.18%"},
      {"smiles": "Cn1c(=O)c2c(nc(SCC(=O)Nc3ccc(F)cc3F)n2Cc2ccccc2)n(C)c1=O", "activation": "inactive: 4.26%"},
      {"smiles": "Cc1c(C)n(Cc2ccc(F)cc2)c2ccc(C(=O)N3CCN(c4ccc(Cl)cc4)CC3)cc12", "activation": "inactive: -12.2%"},
      {"smiles": "COc1ccc(/C=C/C(=O)Nc2ccc3nc(N4CCC(C)CC4)cc(C)c3c2)cc1OC", "activation": "inactive: -20.1%"},
      {"smiles": "CC1(C(=O)NC2CCCCC2)Cc2ccccc2C(=O)N1Cc1ccc(Cl)cc1", "note": "(configuration not stated)", "activation": "inactive: -14.5%"},
      {"smiles": "COc1cccc(C2C(C(=O)Nc3ccc(Cl)cc3)=C(C)Nc3c(C(=O)Nc4ccccc4)cnn32)c1OC", "note": "(configuration not stated)", "activation": "inactive: -3.37%"},
      {"smiles": "Cc1cc(C)cc(NC(=O)c2sc3nc(-c4ccccc4)cn3c2C)c1", "activation": "inactive: -7.17%"},
      {"smiles": "CC(=O)Nc1nonc1-c1nnc(SCc2ccc(F)cc2Cl)n1C", "activation": "inactive: -8.68%"},
      {"smiles": "CN1CC(=O)N/C1=N/C(=O)Nc1cccc(Cl)c1", "activation": "inactive: -10.4%"},
      {"smiles": "CCOC(=O)c1cccc(NC(=O)CCS(=O)(=O)c2ccc(Br)s2)c1", "activation": "inactive: -11.2%"},
      {"smiles": "Cc1ccc(NC(=O)CN2Cc3ccccc3C2=O)c(C)c1", "activation": "inactive: -5.59%"},
      {"smiles": "CCC(C)NC(=O)Cn1c(=O)n(CCCC(=O)NCc2ccc(C)cc2)c(=O)c2ccccc21", "note": "(configuration not stated)", "activation": "inactive: -8.58%"},
      {"smiles": "Cc1cn2c(=O)cc(COc3cc(C)c(Cl)c(C)c3)nc2s1", "activation": "inactive: -10.3%"},
      {"smiles": "CC1CCCCN1S(=O)(=O)c1ccc(F)c(C(=O)Nc2ccccc2C(F)(F)F)c1", "note": "(configuration not stated)", "activation": "inactive: 11.7%"},
      {"smiles": "CCOC(=O)C1CCN(c2cc3c(cc2NC(=O)c2ccc(OC)c(OC)c2)n(C)c(=O)n3C)CC1", "activation": "inactive: -15.7%"},
      {"smiles": "COC(=O)c1ccccc1C(=O)c1ccc(OCCN2CCCCC2)cc1", "activation": "inactive: -21.9%"},
      {"smiles": "Cc1cc(=O)n(Cc2cccc(Br)c2)c2c1c(C)nn2-c1ccccc1", "activation": "inactive: -8.16%"},
      {"smiles": "Cc1cc(Cl)ccc1NS(=O)(=O)c1ccc2c(c1)CCN2S(C)(=O)=O", "activation": "inactive: -21.1%"},
      {"smiles": "COc1ccc(S(=O)(=O)N2CCN(Cc3nc4ccc(C)cc4o3)CC2)cc1OC", "activation": "inactive: -18.3%"},
      {"smiles": "Cc1cccc(CNC(=O)Cc2csc3ccccc23)c1", "activation": "inactive: -16.8%"},
      {"smiles": "CCOc1cc2sc(N3CCC(C(=O)Nc4ccc(C(C)C)cc4)CC3)nc2cc1Br", "activation": "inactive: -23.5%"},
      {"smiles": "CCOc1ccc(NC(=O)CN(c2ccccc2OCC)S(=O)(=O)c2ccccc2)cc1", "activation": "inactive: -11.8%"},
      {"smiles": "N#Cc1ccc(OC(=O)c2cc(-c3ccc4c(c3)OCCO4)on2)cc1", "activation": "inactive: -17.6%"},
      {"smiles": "CCc1ccc(Sc2cc(C(=O)NCCCOC(C)C)c3ccccc3n2)cc1", "activation": "inactive: -35.7%"},
      {"smiles": "CCOC(=O)c1oc2ccc(S(=O)(=O)n3nc(-c4cc(OC)cc(OC)c4)cc3N)cc2c1C", "activation": "inactive: -6.9%"},
      {"smiles": "CC(=O)Nc1ccc(-n2c(CCC(=O)O)ccc2-c2ccc(C)cc2)cc1", "activation": "inactive: -3.35%"},
      {"smiles": "CCc1ccccc1NC(=O)C1COc2ccccc2C1", "note": "(configuration not stated)", "activation": "inactive: -13%"},
      {"smiles": "Cn1cnc(S(=O)(=O)N2CCC(C(=O)N3CCN(c4ccc(Cl)cc4)CC3)CC2)c1", "activation": "inactive: -6.22%"},
      {"smiles": "N#C/C(=C\\c1ccccc1)C(=O)Nc1sc2c(c1C(N)=O)CCC2", "activation": "inactive: -30.8%"},
      {"smiles": "COc1cccc(C2C(C(=O)Nc3ccccc3)=C(C)Nc3nnnn32)c1OC", "note": "(configuration not stated)", "activation": "inactive: -3.3%"},
      {"smiles": "N[C@H](C(=O)O)[C@@H](O)c1ccc(O)c(O)c1", "activation": "inactive: -13.2%"},
      {"smiles": "Cc1ccc(NC(=O)CSc2nc3c(oc4ccccc43)c(=O)n2Cc2ccco2)cc1", "activation": "inactive: -19.7%"},
      {"smiles": "CCCn1c(=O)c2sccc2n2c(CCCC(=O)N3CCN(c4cccc(C)c4C)CC3)nnc12", "activation": "inactive: 1.65%"},
      {"smiles": "Cc1cc2nc(-c3ccc(Br)cc3)cc(C(F)(F)F)n2n1", "activation": "inactive: -18.7%"},
      {"smiles": "CCOC(=O)C1CCN(C(=O)Cn2nc(C)n3c(cc4cc(C)ccc43)c2=O)CC1", "activation": "inactive: 4.23%"},
      {"smiles": "COc1ccc(CCn2c(=O)c3cccnc3n(CC(=O)Nc3cccc(C)c3)c2=O)cc1OC", "activation": "inactive: 14.7%"},
      {"smiles": "COc1ccc(S(=O)(=O)NCc2ccc3c(c2)CCN3C(=O)c2ccc(C)cc2)cc1Cl", "activation": "inactive: -8.9%"},
      {"smiles": "CC(=O)N(Cc1cccnc1)c1nc2c(C)cccc2s1", "activation": "inactive: -11.6%"},
      {"smiles": "Cn1cc(-c2cc3n(n2)CCC(=O)N3CCCC(=O)Nc2ccc(F)cc2F)c2ccccc21", "activation": "inactive: 1.53%"},
      {"smiles": "Cc1cc(C)cc(-n2ccnc2SCC(=O)Nc2ccc3c(c2)OCO3)c1", "activation": "inactive: -27.4%"},
      {"smiles": "CCc1ccc(N2CCn3c2nc2c3c(=O)n(Cc3c(F)cccc3Cl)c(=O)n2C)cc1", "activation": "inactive: -4.07%"}
    ]}
  ]
}
